# Laboratory results published in article PMC9911399, “Two distinct binding modes provide the RNA-binding protein RbFox with extraordinary sequence specificity”.
# Where a chain is given by its changes, count along the chain named. Some of the results follow.
# B1: GAAUGCA (DNA:RNA)
# RNA: GGGAGACCGGAAUUCAGAUUGUCCGAAUGCAUUAAAUCCCGUCGUAGCCACCA
# DNA 1: CAATCTGAATTCCGGTCTCCC
# DNA 2: TGGTGGCTACGACGGGATT
# B2: CGGAAGU (DNA:RNA)
# RNA: GGGAGACCGGAAUUCAGAUUGUCCCGGAAGUUUAAAUCCCGUCGUAGCCACCA
# DNA 1: CAATCTGAATTCCGGTCTCCC
# DNA 2: TGGTGGCTACGACGGGATT
# B3: GUCAUGC (DNA:RNA)
# RNA: B2 RNA with C25G, G26U, G27C, A29U, U31C
# DNA 1: CAATCTGAATTCCGGTCTCCC
# DNA 2: TGGTGGCTACGACGGGATT
# B4: GGUAUAC (DNA:RNA)
# RNA: B2 RNA with C25G, G27U, A29U, G30A, U31C
# DNA 1: CAATCTGAATTCCGGTCTCCC
# DNA 2: TGGTGGCTACGACGGGATT
# B5: UUAGUUU (DNA:RNA)
# RNA: B2 RNA with C25U, G26U, G27A, A28G, A29U, G30U
# DNA 1: CAATCTGAATTCCGGTCTCCC
# DNA 2: TGGTGGCTACGACGGGATT
# B6: GAGACAA (DNA:RNA)
# RNA: B1 RNA with A27G, U28A, G29C, C30A
# DNA 1: CAATCTGAATTCCGGTCTCCC
# DNA 2: TGGTGGCTACGACGGGATT
# B7: CUCUAAA (DNA:RNA)
# RNA: B2 RNA with G26U, G27C, A28U, G30A, U31A
# DNA 1: CAATCTGAATTCCGGTCTCCC
# DNA 2: TGGTGGCTACGACGGGATT
# B8: GAGGUAA (DNA:RNA)
# RNA: B1 RNA with A27G, U28G, G29U, C30A
# DNA 1: CAATCTGAATTCCGGTCTCCC
# DNA 2: TGGTGGCTACGACGGGATT
# B9: UCGAGCC (DNA:RNA)
# RNA: B2 RNA with C25U, G26C, A29G, G30C, U31C
# DNA 1: CAATCTGAATTCCGGTCTCCC
# DNA 2: TGGTGGCTACGACGGGATT
# B10: CGAUCAU (DNA:RNA)
# RNA: B2 RNA with G27A, A28U, A29C, G30A
# DNA 1: CAATCTGAATTCCGGTCTCCC
# DNA 2: TGGTGGCTACGACGGGATT
# B11: UGAUAAU (DNA:RNA)
# RNA: B2 RNA with C25U, G27A, A28U, G30A
# DNA 1: CAATCTGAATTCCGGTCTCCC
# DNA 2: TGGTGGCTACGACGGGATT
# B12: GAGACCU (DNA:RNA)
# RNA: B2 RNA with C25G, G26A, A29C, G30C
# DNA 1: CAATCTGAATTCCGGTCTCCC
# DNA 2: TGGTGGCTACGACGGGATT
# B13: GCCGAUA (DNA:RNA)
# RNA: B1 RNA with A26C, A27C, U28G, G29A, C30U
# DNA 1: CAATCTGAATTCCGGTCTCCC
# DNA 2: TGGTGGCTACGACGGGATT
# B14: UCUGCCG (DNA:RNA)
# RNA: B1 RNA with G25U, A26C, A27U, U28G, G29C, A31G
# DNA 1: CAATCTGAATTCCGGTCTCCC
# DNA 2: TGGTGGCTACGACGGGATT
# B15: CCUAGGU (DNA:RNA)
# RNA: B2 RNA with G26C, G27U, A29G
# DNA 1: CAATCTGAATTCCGGTCTCCC
# DNA 2: TGGTGGCTACGACGGGATT
# B16: AACUCGC (DNA:RNA)
# RNA: B1 RNA with G25A, A27C, G29C, C30G, A31C
# DNA 1: CAATCTGAATTCCGGTCTCCC
# DNA 2: TGGTGGCTACGACGGGATT
# B17: AGCUAUA (DNA:RNA)
# RNA: B2 RNA with C25A, G27C, A28U, G30U, U31A
# DNA 1: CAATCTGAATTCCGGTCTCCC
# DNA 2: TGGTGGCTACGACGGGATT
# B18: UUGAAUA (DNA:RNA)
# RNA: B2 RNA with C25U, G26U, G30U, U31A
# DNA 1: CAATCTGAATTCCGGTCTCCC
# DNA 2: TGGTGGCTACGACGGGATT
# B19: GUGUAUG (DNA:RNA)
# RNA: B2 RNA with C25G, G26U, A28U, G30U, U31G
# DNA 1: CAATCTGAATTCCGGTCTCCC
# DNA 2: TGGTGGCTACGACGGGATT
# B20: GUAGUUU (DNA:RNA)
# RNA: B1 RNA with A26U, U28G, G29U, C30U, A31U
# DNA 1: CAATCTGAATTCCGGTCTCCC
# DNA 2: TGGTGGCTACGACGGGATT
# B21: AAGGACG (DNA:RNA)
# RNA: B2 RNA with C25A, G26A, A28G, G30C, U31G
# DNA 1: CAATCTGAATTCCGGTCTCCC
# DNA 2: TGGTGGCTACGACGGGATT
# B22: CGGAUCC (DNA:RNA)
# RNA: B2 RNA with A29U, G30C, U31C
# DNA 1: CAATCTGAATTCCGGTCTCCC
# DNA 2: TGGTGGCTACGACGGGATT
# B23: AGGCGGA (DNA:RNA)
# RNA: B2 RNA with C25A, A28C, A29G, U31A
# DNA 1: CAATCTGAATTCCGGTCTCCC
# DNA 2: TGGTGGCTACGACGGGATT
# B24: CAACUUU (DNA:RNA)
# RNA: B2 RNA with G26A, G27A, A28C, A29U, G30U
# DNA 1: CAATCTGAATTCCGGTCTCCC
# DNA 2: TGGTGGCTACGACGGGATT
# B25: GCCGCGA (DNA:RNA)
# RNA: B1 RNA with A26C, A27C, U28G, G29C, C30G
# DNA 1: CAATCTGAATTCCGGTCTCCC
# DNA 2: TGGTGGCTACGACGGGATT
# B26: AAUUAGG (DNA:RNA)
# RNA: B2 RNA with C25A, G26A, G27U, A28U, U31G
# DNA 1: CAATCTGAATTCCGGTCTCCC
# DNA 2: TGGTGGCTACGACGGGATT
# B27: UGUUUAA (DNA:RNA)
# RNA: B1 RNA with G25U, A26G, A27U, G29U, C30A
# DNA 1: CAATCTGAATTCCGGTCTCCC
# DNA 2: TGGTGGCTACGACGGGATT
# B28: AGAUUCA (DNA:RNA)
# RNA: B1 RNA with G25A, A26G, G29U
# DNA 1: CAATCTGAATTCCGGTCTCCC
# DNA 2: TGGTGGCTACGACGGGATT
# B29: CAUAAUG (DNA:RNA)
# RNA: B2 RNA with G26A, G27U, G30U, U31G
# DNA 1: CAATCTGAATTCCGGTCTCCC
# DNA 2: TGGTGGCTACGACGGGATT
# B30: GAGGGGA (DNA:RNA)
# RNA: B1 RNA with A27G, U28G, C30G
# DNA 1: CAATCTGAATTCCGGTCTCCC
# DNA 2: TGGTGGCTACGACGGGATT
# B31: GCGCACA (DNA:RNA)
# RNA: B1 RNA with A26C, A27G, U28C, G29A
# DNA 1: CAATCTGAATTCCGGTCTCCC
# DNA 2: TGGTGGCTACGACGGGATT
# Target: T1, RBFOX1 RRM RbFoxmut (Fox-RRM*) (Homo sapiens, UniProt Q9NWB1 109-208, R118D;E147R;N151S;E152T)
# T1 sequence: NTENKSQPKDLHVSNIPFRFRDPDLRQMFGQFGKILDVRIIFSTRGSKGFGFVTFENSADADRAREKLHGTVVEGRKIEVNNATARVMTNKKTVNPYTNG
# Assay: EMSA; HiTS-Eq, 1 nM pool, 10 min; buffer printed only for the single-RNA assays: 10 mM Tris pH 7.5, 150 mM NaCl, 3.4 mM EDTA, 0.001% NP-40, 30 C
# Settings: tags: His6 N-terminal (pET28a); label: 5' 32P
# How it was run: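 Purified wild-type or mutant RbFox RRM at increasing concentrations was equilibrated with 1 nM of 5′-radiolabelled RNA carrying 7 randomized nucleotides for 10 min in 50 µL. Unbound RNA was separated by 8% native PAGE and sequenced. Relative association constants came from read-count changes of each RNA species compared with the control reaction, normalised to the cognate motif.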
row,Binder,binding signal
1,B1,1.03 KA relative to UGCAUGU
2,B2,0.0941 KA relative to UGCAUGU
3,B3,0.19 KA relative to UGCAUGU
4,B4,0.0792 KA relative to UGCAUGU
5,B5,0.103 KA relative to UGCAUGU
6,B6,0.0523 KA relative to UGCAUGU
7,B7,0.0846 KA relative to UGCAUGU
8,B8,0.103 KA relative to UGCAUGU
9,B9,0.154 KA relative to UGCAUGU
10,B10,0.0818 KA relative to UGCAUGU
11,B11,0.0819 KA relative to UGCAUGU
12,B12,0.0622 KA relative to UGCAUGU
13,B13,0.11 KA relative to UGCAUGU
14,B14,0.0615 KA relative to UGCAUGU
15,B15,0.0979 KA relative to UGCAUGU
16,B16,0.0897 KA relative to UGCAUGU

row,Binder,binding signal
1,B17,0.14 KA relative to UGCAUGU
2,B18,0.132 KA relative to UGCAUGU
3,B19,1.38 KA relative to UGCAUGU
4,B20,0.128 KA relative to UGCAUGU
5,B21,0.0532 KA relative to UGCAUGU
6,B22,0.114 KA relative to UGCAUGU
7,B23,0.12 KA relative to UGCAUGU
8,B24,0.0981 KA relative to UGCAUGU
9,B25,0.0939 KA relative to UGCAUGU
10,B26,0.106 KA relative to UGCAUGU
11,B27,0.105 KA relative to UGCAUGU
12,B28,0.107 KA relative to UGCAUGU
13,B29,0.119 KA relative to UGCAUGU
14,B30,0.0761 KA relative to UGCAUGU
15,B31,0.093 KA relative to UGCAUGU
